Results on 65 compounds are retold here after PMC6919601, “Identification of Plasmodium dipeptidyl aminopeptidase allosteric inhibitors by high throughput screening” (PLoS ONE, 2019).

Out of some 110,000 compounds screened, about 230 (0.21%) showed an effect of 50% or more. The list shows a part of the results.
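Also: 30 min substrate incubation versus DMSO and 10 µM JCP410 controls.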

This assay deals with DPAP1 (Plasmodium falciparum, UniProt Q8IIJ9). In words: primary screen, percent inhibition; read by cleavage of a fluorogenic dipeptide substrate; higher = more effect of the substance. Further details: species or system P. falciparum D10 trophozoite lysates; single well.
DPAP1, sequence (Q8IIJ9 whole entry, looked up): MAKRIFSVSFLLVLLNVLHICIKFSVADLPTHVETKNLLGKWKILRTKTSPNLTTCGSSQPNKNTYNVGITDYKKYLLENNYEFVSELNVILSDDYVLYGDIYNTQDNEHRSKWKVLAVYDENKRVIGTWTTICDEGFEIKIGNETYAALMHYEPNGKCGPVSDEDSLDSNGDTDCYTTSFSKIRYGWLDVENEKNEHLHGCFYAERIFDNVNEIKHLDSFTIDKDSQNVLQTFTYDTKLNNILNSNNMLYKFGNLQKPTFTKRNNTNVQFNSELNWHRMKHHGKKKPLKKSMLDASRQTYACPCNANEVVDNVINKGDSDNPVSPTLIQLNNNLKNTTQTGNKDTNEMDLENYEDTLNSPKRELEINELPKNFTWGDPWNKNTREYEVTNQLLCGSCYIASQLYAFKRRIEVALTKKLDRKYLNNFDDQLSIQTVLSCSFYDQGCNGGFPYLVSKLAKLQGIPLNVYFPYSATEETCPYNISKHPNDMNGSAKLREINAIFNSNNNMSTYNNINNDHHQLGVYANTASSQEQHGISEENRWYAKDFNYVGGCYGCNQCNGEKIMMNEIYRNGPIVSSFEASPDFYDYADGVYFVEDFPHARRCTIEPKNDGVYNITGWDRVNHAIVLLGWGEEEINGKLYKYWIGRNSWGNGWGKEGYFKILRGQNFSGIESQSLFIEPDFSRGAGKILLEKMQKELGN
For the compound `CN(C)c1nc(Oc2ccc(=O)n(C)n2)nc(N(C)C)n1`, the “% Inhibition @ 10 uM” value is on record as -2.65%.

Take `Nc1ccc(Br)cc1-c1nc2ccccc2nc1O`: the “% Inhibition @ 10 uM” value is -0.591%.

With `Nc1c(C(=O)c2ccc(Cl)cc2)sc2nc3c(c(-c4ccc(Cl)cc4)c12)CCCC3`, the “% Inhibition @ 10 uM” value is -4.21%.

Regarding `COCCCNc1nc2c(-c3cccc(C(F)(F)F)c3)nnn2c2ccccc12`, the “% Inhibition @ 10 uM” value is on record as -2.92%.

With `CC(=O)NCCc1c(C(=O)O)[nH]c2ccc(C(C)=O)cc12`, the “% Inhibition @ 10 uM” value stood at 4.65%.

For `CC1(C)CC(=O)C(C(NC(=O)c2ccccc2)(C(F)(F)F)C(F)(F)F)=C(O)C1`, the “% Inhibition @ 10 uM” value is reported as 3.72%.

For `CCOc1ccc(/C=C/c2nc(C#N)c(NCc3ccc(F)cc3)o2)cc1`, the “% Inhibition @ 10 uM” value turned out to be 0.895%.

In the case of `O=C(O)c1ccc(Oc2ccc3c(c2)C(=O)N(c2ccccc2O)C3=O)cc1`, the “% Inhibition @ 10 uM” value was 18.3%.

Take `CCCN(CCC)CCNC(=O)NCc1noc2ccc(C)cc12`: the “% Inhibition @ 10 uM” value is -1.97%.

Turning to `Cc1cc(O)nc(SCC(=O)Nc2cc(Cl)ccc2Oc2ccccc2)n1`, the “% Inhibition @ 10 uM” value is -1.08%.

`CCC(Sc1nncn2c1cc1oc(C)cc12)C(=O)NCCc1ccccc1` (centres unmarked): the “% Inhibition @ 10 uM” value is -3.46%.

As for `CN(C)CCCNc1oc(-c2cccs2)nc1S(=O)(=O)c1ccccc1`, the “% Inhibition @ 10 uM” value was -9.11%.

Regarding `CN1C(=O)c2[nH]nc(-c3ccccc3)c2C1c1cccnc1` (centres unmarked), the “% Inhibition @ 10 uM” value is reported as 2.29%.

Consider `CC(=O)NC(Cc1ccccc1)C(=O)NCc1ccccc1` (centres unmarked), for which the “% Inhibition @ 10 uM” value turned out to be 5.99%.

Consider `CC1CCCc2sc(NC(=O)CCC(=O)O)c(C#N)c21` (centres unmarked), for which the “% Inhibition @ 10 uM” value is reported as -1.64%.

As for `CN(Cc1cccc(Br)c1)CC(O)c1ccccc1` (centres unmarked), the “% Inhibition @ 10 uM” value is listed as -2.24%.

`NC(=O)c1ccc(NC(=O)CCN2C(=O)c3ccccc3C2=O)cc1`: the “% Inhibition @ 10 uM” value is given as -1.44%.

As for `CC(C)C[C@H](NC(=O)c1ccnc(N2CCN(C)CC2)c1)C(=O)NCC#N`, the “% Inhibition @ 10 uM” value worked out at 2.22%.

As for `Cc1nc2nc(C)c(NS(=O)(=O)c3cccs3)c(O)n2n1`, the “% Inhibition @ 10 uM” value was -0.0709%.

For the compound `COc1nc(NCCc2ccc(OC)c(OC)c2)nc(NC(C)(C)CO)n1`, the “% Inhibition @ 10 uM” value was -2.14%.

Take `O=C1NC(=S)NC(=O)C1=Cc1cccc2ccccc12`: the “% Inhibition @ 10 uM” value is -1.25%.

`COc1cc(C(=O)Nc2c3c(nn2-c2ccc(C)cc2C)CS(=O)(=O)C3)cc(OC)c1OC`: the “% Inhibition @ 10 uM” value came to 1.32%.

With `CC(CCc1ccccc1)NC(=O)Cn1ncc2c3ccccc3n(C)c2c1=O` (centres unmarked), the “% Inhibition @ 10 uM” value is -3.67%.

As to `Cc1ccccc1C(=O)Nc1ccc2c(c1)OCO2`, the “% Inhibition @ 10 uM” value was determined as 1.89%.

Take `c1ccc(Oc2nc(-c3ccccc3)cc(-c3ccccc3)n2)cc1`: the “% Inhibition @ 10 uM” value is reported as -3.82%.

Turning to `CCCCOc1cccc(-c2[nH]c3c(C(=O)OC)cnn3c2NC2CCCC2)c1`, the “% Inhibition @ 10 uM” value turned out to be 2.79%.

In the case of `O=C(NCCCc1ccccc1)c1oc(=O)c2ccccc2c1-c1ccccc1`, the “% Inhibition @ 10 uM” value is -6.67%.

With `O=C1CSC(c2ccc(Cl)c(Cl)c2)N1CCc1ccccc1` (centres unmarked), the “% Inhibition @ 10 uM” value is listed as -4.31%.

For the compound `CCc1nnc(OCC(=O)NCCC2=CCCCC2)c2cc3cc(F)ccc3n12`, the “% Inhibition @ 10 uM” value was found to be 1.63%.

Turning to `CC1=CC(C)C2(CO)COCC1C2C` (centres unmarked), the “% Inhibition @ 10 uM” value is given as 3.15%.

As to `Cc1nccn1CCCNC(=O)C(=O)Nc1cccnc1Cl`, the “% Inhibition @ 10 uM” value is listed as -0.189%.

Regarding `CCNC(=O)C1CCCN(c2ncnc3c2nc2n3CCCCC2)C1` (centres unmarked), the “% Inhibition @ 10 uM” value is on record as 2.59%.

Take `COc1ccc(CN2CCSCC2)c(OC)c1C`: the “% Inhibition @ 10 uM” value is recorded as -1.98%.

Take `COc1ccc(C2C(C#N)=C(N)N(c3ccc(F)cc3)C3=C2C(=O)CC(C)(C)C3)cc1` (centres unmarked): the “% Inhibition @ 10 uM” value was 3.05%.

With `Cc1sc(NC(=O)Cn2nc(C(F)(F)F)cc2C)nc1-c1ccccc1`, the “% Inhibition @ 10 uM” value is 1.61%.

With `CCOc1ccc(NC(=O)C(C)(C)CC)cc1`, the “% Inhibition @ 10 uM” value is listed as -8.67%.

With `O=C(c1cc(-c2ccccc2)[nH]n1)N1CCn2c1nc1ccccc12`, the “% Inhibition @ 10 uM” value is listed as -2.77%.

Regarding `O=C(COc1ccccc1Cl)Nc1ccc(N2CCN(C(=O)c3ccccc3)CC2)cc1`, the “% Inhibition @ 10 uM” value stood at 0.907%.

For the compound `CCN1/C(=c2/s/c(=C3/C(=O)NN=C3C)n(CC)c2=O)Sc2ccccc21`, the “% Inhibition @ 10 uM” value is listed as -1.44%.

For `Cc1ccc2cnn(CC(=O)NCc3ccc(OC(C)C)cc3)c2c1`, the “% Inhibition @ 10 uM” value is listed as -4.71%.

As for `Cc1nnc(NC(=O)CSc2ccc3nnc(-c4ccccc4)n3n2)s1`, the “% Inhibition @ 10 uM” value is on record as -3.21%.

For `CCOc1cc(/C=C2/C(=N)N3N=C(C(C)C)SC3=NC2=O)ccc1O`, the “% Inhibition @ 10 uM” value is -2.87%.

Take `O=C(NCCc1ccccc1)c1ccc(-c2ccccc2)cc1`: the “% Inhibition @ 10 uM” value worked out at 0.255%.

For `CN1CCN(C(=S)SCCN2CCCC2=O)CC1`, the “% Inhibition @ 10 uM” value is recorded as -8.13%.

Regarding `Cc1ccccc1OCC(=O)NC(C)(C)C`, the “% Inhibition @ 10 uM” value is reported as 6.73%.

For the compound `CC1CC(C)CN(C(=O)Nc2ccc(Cl)c(Cl)c2)C1` (centres unmarked), the “% Inhibition @ 10 uM” value is recorded as 4.11%.

With `Cc1cc(OCC(=O)Nc2ccc(C#N)cc2)cc(C)c1Cl`, the “% Inhibition @ 10 uM” value was found to be 0.00477%.

`CCOC(=O)C1=C(CNCCOC)NC(=O)NC1c1ccccc1` (centres unmarked): the “% Inhibition @ 10 uM” value is reported as -3.1%.

Take `CCOC(=O)c1ccc(-n2c(C)cc(C=C(C#N)C#N)c2C)cc1`: the “% Inhibition @ 10 uM” value was 4.95%.

For the compound `CCOC(=O)C1=C(CS(=O)(=O)c2ccc(C)c(C)c2)NC(=O)NC1c1ccc(O)c(OC)c1` (centres unmarked), the “% Inhibition @ 10 uM” value is -3.94%.

Consider `COCCNC(=O)Cn1ncc2c1-c1ccccc1OC2`, for which the “% Inhibition @ 10 uM” value is given as 3.32%.

As to `COc1cc(CN2CCN(Cc3ccc(Cl)cc3)CC2)cc(OC)c1`, the “% Inhibition @ 10 uM” value was -5.56%.

Take `O=C(O)c1cc(-c2ccccc2)c(N2CCOCC2)s1`: the “% Inhibition @ 10 uM” value is -1.03%.

For the compound `CCCCCOC(=O)C1=C(C)NC(=O)NC1c1cccc(OCc2ccccc2)c1` (centres unmarked), the “% Inhibition @ 10 uM” value was found to be 24.8%.

Consider `O=C(Nc1ccc(S(=O)(=O)Nc2ccc(Cl)c(Cl)c2)cc1)c1ccc(Br)o1`, for which the “% Inhibition @ 10 uM” value was 6.52%.

On to `CCSc1cc(N2CCOCC2)nc(-c2ccccc2)n1`, for which the “% Inhibition @ 10 uM” value was -5.6%.

Turning to `C=Cc1ccc(Cn2c(C(=O)O)c(CNCc3ccc(C)cc3)c3ccc(OC)cc32)cc1`, the “% Inhibition @ 10 uM” value stood at 9.28%.

On to `N#CC1=C2SCN(CCN3CCOCC3)CN2C(=O)CC1c1ccc(F)cc1` (centres unmarked), for which the “% Inhibition @ 10 uM” value is given as 49.5%.

For the compound `COc1ccc2nc(O)c(-c3noc(-c4ccccc4C)n3)cc2c1`, the “% Inhibition @ 10 uM” value is given as -7.33%.

For `CCc1c(C)[nH]c(C(=O)OCc2ccccc2)c1C`, the “% Inhibition @ 10 uM” value is on record as 2.65%.

Take `Cc1nn(Cc2ccc(F)cc2)c(C)c1NC(=O)c1cc(-c2ccc(F)cc2)on1`: the “% Inhibition @ 10 uM” value was -2.65%.

Take `O=C(O)C1C2CCC(O2)C1C(=O)NCc1ccc(Cl)cc1` (centres unmarked): the “% Inhibition @ 10 uM” value is -10.2%.

As for `O=C(NCCCN1CCOCC1)c1ccccc1O`, the “% Inhibition @ 10 uM” value is given as 6.73%.

Regarding `COc1cc(C2C(C#N)=C(N)Oc3[nH]nc(-c4ccc5c(c4)OCO5)c32)cc(Cl)c1O` (centres unmarked), the “% Inhibition @ 10 uM” value is -4%.

`CN(Cc1ccco1)S(=O)(=O)c1ccc(CN2C(=O)c3cccnc3C2=O)s1`: the “% Inhibition @ 10 uM” value was -1.48%.
